Patent US20090196917A1, “Liposomal Formulations of Hydrophobic Lactone Drugs in the Presence of Metal Ions” (University of Kentucky Research Foundation, priority 2008, published 2009)

System: Non-small cell lung cancer (H460) tumor
Assay: Efficacy of DB-67 in non-small cell lung cancer (H460) xenografts in mice
Conditions: protracted intravenous dosing, 2.5-7.5 mg/kg/day, 5-15 days per 21 day cycle

## CC[C@@]1(O)C(=O)OCc2c1cc1n(c2=O)Cc2c-1nc1ccc(O)cc1c2[Si](C)(C)C(C)(C)C [DB-67, silatecan 7-t-butyldimethylsilyl-10-hydroxycamptothecin]
  treatment of non-small cell lung cancer (H460) in mice (tumor volume, survival): effective
